The source of these data is the RNAGym collection of RNA variant scans (doi:10.1073/pnas.2313332121).

B1: TPR 5TU (parent)
chain: GGAUCUUCUCGAUCUAACAAAAAAGACAAAUCUGCCACAAAGCUUGAGAGCAUCUUCGGAUGCAGAGGCGGCAGCCUUCGGUGGCGCGAUAGCGCCAACGUUCUCAACUAUGACACGCAAAACGCGUGCUCCGUUGAAUGGAGUUUAUCAUG

This sample is rich in variants without activity.

In this data set the parent is B1. The data set can be described thus: polymerase ribozyme fitness, log enrichment relative to wild type (log ratio); higher = more active; in vitro selection for triplet polymerase activity. Summed up:
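Each subunit of a heterodimeric triplet polymerase ribozyme was mutagenized into a library by PCR, transcribed, and subjected to one round of in vitro selection, run in triplicate. Libraries were annealed with a biotinylated primer, the partner subunit and triplets, incubated frozen at −7 °C, and extended constructs were gel-excised, captured on streptavidin beads and recovered by RT-PCR. Input and output libraries were sequenced on Illumina, keeping genotypes with ≥10 input reads and ≥1 read per output. Fitness is log base 2 of genotype enrichment divided by wild-type enrichment, from inverse-variance-weighted replicate averages.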
On to A22C G50A U55G U77C G94A, for which the “polymerase ribozyme fitness (log ratio)” value was -4.04.
As for A21U C36A G80A G88A G100U G124C G133A G143C U148A, the “polymerase ribozyme fitness (log ratio)” value was at most -4.2.
Turning to A22C C75U U77C G83A A89C, the “polymerase ribozyme fitness (log ratio)” value was at most -4.2.
The same measure for A21U A39C C108U: at most -4.2.
The same measure for A21U U55G A60G C87A G133U: at most -4.2; for A21U G84C G128U: at most -4.2.
As to A23G G48C G67A C87G C125G G126U, the “polymerase ribozyme fitness (log ratio)” value is at most -4.2.
Under A21U C38A G81A stands 0.0427.
With A22G C54U C85U C116G, the “polymerase ribozyme fitness (log ratio)” value worked out at 1.12.
As for A22U A37U A41G G86A C108G C116A A142G, the “polymerase ribozyme fitness (log ratio)” value was at most -4.2.
Turning to A23G A26U C54A U90G A91G, the “polymerase ribozyme fitness (log ratio)” value was at most -4.2.
As for A23C C54U U56A A73U C75A G86U, the “polymerase ribozyme fitness (log ratio)” value was at most -4.2.
Under A22U A41G G46C A49C C85A C95U A119U U130A G140U U151C stands at most -4.2; under A23G A39U A47C U53G G86C A106G, at most -4.2.
Consider A23G G50A A60C G74C G136C U148G, for which the “polymerase ribozyme fitness (log ratio)” value is at most -4.2.
The same measure for A23G U44A A47U A52C C87G A89U A97U G136A: at most -4.2.
On to A22U A28C G50C U55A, for which the “polymerase ribozyme fitness (log ratio)” value was at most -4.2.
Under A22U A52G A91C U135G stands at most -4.2; under A22U A29U U55C C63G U134G, at most -4.2; under A22G C43A G59U A60G G81A C85U G143U U144G, at most -4.2.
The same measure for A22C A52C U55A C76A G81A A137G: at most -4.2.
Turning to A21U C54A U55A A89G G141C U146C, the “polymerase ribozyme fitness (log ratio)” value is at most -4.2.
The same measure for A21U G88A: -3.62.
Turning to A21U G65U C85U C105A U144A, the “polymerase ribozyme fitness (log ratio)” value is at most -4.2.
For A23C C43U C93U C149G, the “polymerase ribozyme fitness (log ratio)” value was at most -4.2.
On to A21U C27G C93A C114U G141U, for which the “polymerase ribozyme fitness (log ratio)” value was at most -4.2.
For the variant A22U C32U A47U U55A C96G A97U G133U U134C U135G, the “polymerase ribozyme fitness (log ratio)” value was at most -4.2.
The same measure for A22U G59A: -0.47; for A23U A28G U31C G34A A49C C87U A137U A147C: at most -4.2.
The same measure for A23G G92U: -3.31; for A21U C57A C76U C116A: 0.702; for A23C A29C A39U G50U C75G A91U U104G: at most -4.2.
Under A23C A30G C95U A98G stands at most -4.2.
A22C C27G C76U C96G G140U: the “polymerase ribozyme fitness (log ratio)” value was at most -4.2.
The same measure for A22C C35G U56C C69G G86A C108U G128U U144C: at most -4.2; for A23G C75G C76U A115C: at most -4.2.
The same measure for A23G A40U A66C U109G U111G C149U: at most -4.2; for A22U A28G G80C C99U C108A G140C: at most -4.2; for A22U A26G A30C U61G G68A C76A G81A A106G U135G: at most -4.2.
As to A22G G59A, the “polymerase ribozyme fitness (log ratio)” value was -0.246.
The same measure for A23C A24G A28C C63U G67A A121U U144A: at most -4.2; for A22G A40U U44G A47C C85U C96A A98G A121C: at most -4.2; for A21U A40G U61G A91G G94U U145A: at most -4.2.
A22C G48C C51U G70C C72U C105U G143U: the “polymerase ribozyme fitness (log ratio)” value was at most -4.2.
The same measure for A22C A39C: -2.49.
The same measure for A22G A41C G86C U151A: at most -4.2; for A23C G74C C132G: at most -4.2.
The same measure for A23G G50U U146G: -3.73; for A22G A23U C35A C75A C95G: at most -4.2.
As to A22U A41G G81A C87U C99U A119G G152A, the “polymerase ribozyme fitness (log ratio)” value was -2.3.
For the variant A22U U134A, the “polymerase ribozyme fitness (log ratio)” value was -2.01.
Under A21U C72U A122U stands -0.472; under A23C A24G G88A C118U, at most -4.2.
Turning to A23G U45A U55A C57A A60G G67A G83A, the “polymerase ribozyme fitness (log ratio)” value is at most -4.2.
Regarding A22G U33C C87A G92A C103A G128A U144G, the “polymerase ribozyme fitness (log ratio)” value was at most -4.2.
Under A23U A26C G50A stands at most -4.2.
Under A22C G84U A98G G140U stands at most -4.2; under A22C A24G C51G A52C U56A A121C, at most -4.2; under A22C A28U A47C U61G C79G C95U C118A, at most -4.2.
Take A21U G83C: the “polymerase ribozyme fitness (log ratio)” value was -1.57.
The same measure for A23C G25A U55A U61G G68A G92U A97U G124A G128C: at most -4.2; for A22U C36U G94U A121G U148A: at most -4.2.
Take A23C C72U U82G: the “polymerase ribozyme fitness (log ratio)” value was at most -4.2.
For the variant A22C G84U A98U G140U, the “polymerase ribozyme fitness (log ratio)” value was at most -4.2.
Turning to A23C C35U C54U, the “polymerase ribozyme fitness (log ratio)” value is at most -4.2.
For the variant A23G C87A C96U A98C, the “polymerase ribozyme fitness (log ratio)” value is at most -4.2.
The same measure for A21U G42A C87U G92U C93A C105U C118A U127A A150U: at most -4.2; for A22C A91U C125A: at most -4.2; for A23G G58U G83U C118U A137U: at most -4.2.
As for A22U C76U U102G, the “polymerase ribozyme fitness (log ratio)” value is -3.01.
Under A21U U56A C75A G88A stands at most -4.2; under A22C C38U G58U A60C C85A C87U G133A G140U, at most -4.2.
The same measure for A22U G46C C114U: -3.67.
The same measure for A22G A28G A52U G80A C93G U101C A113U G140U: at most -4.2; for A22C A29U G48A G124C: at most -4.2; for A22U A39G A49C C79A A137C: at most -4.2.
On to A22U A26G C85U C93A, for which the “polymerase ribozyme fitness (log ratio)” value is at most -4.2.
For the variant A21U A47G U55A C96A G133U, the “polymerase ribozyme fitness (log ratio)” value was at most -4.2.
Under A22C A30C U61A C69G C76U A97U A115U A142C A150U stands at most -4.2; under A22U A30G G86U G117C A147U, at most -4.2.
With A22C A49C G84C G94U, the “polymerase ribozyme fitness (log ratio)” value was at most -4.2.
With A22C G48C G50C C96A A110U G124A, the “polymerase ribozyme fitness (log ratio)” value is at most -4.2.
Under A22G A28C U33G C93A G94C C95U A121U stands at most -4.2.
